The other results are listed elsewhere or left out. These are further read-outs of the screen, such as a control signal, another cell line or another target. No call is given for them. Numbered stars: 1 amine (or outer) side, 2 acyl side, 3 side chain; on linkers, the order of the positions; unused ones are H or OH. Square brackets hold non-standard residues; d marks the D form. Peptide text beside a SMILES is read from it. X3 = CC(CC(O[*:1])C(=O)[*:2])C(=O)O; NMeV = CN[CH](C(=O)O)C(C)C; NMeA = CN[CH](C)C(=O)O; βAla = NCCC(=O)O
Columns and labels:
Experiment in all cases: Primary Screen for Target Class Profiling of Small Molecule Inhibitors of Methyltransferases
[1] = target: Glycine N-methyltransferase (Homo sapiens) (UniProt Q14749); conditions: purified enzyme, MTase-Glo SAH luminescence; measured here: GNMT inhibition; at 40 µM; stronger effect = lower value
Description: (§1) PI: Matthew D. Hall Ph.D. and Quinlin M. Hanson Ph.D.
(§2) National Center for Advancing Translational Sciences (NCATS)
(§3) National Institute of Health (NIH), Rockville, MD
(§4) Target class profiling (TCP) is a chemical biology approach amenable to investigating understudied biological targets. TCP is achieved by developing a generalizable assay platform and applying it to screen a curated set of compound libraries against representative members of a target class. Small molecule methyltransferases (SMMTase) are a subclass of methyltransferase that act on metabolites to modulate signaling pathways, metabolize xenobiotics, or balance the available methyl pool. We screened four curated libraries totaling 27,574 unique compounds against the SMMTases nicotinamide N-methyltransferase (NNMT), phenylethanolamine N-methyltransferase (PNMT), histamine N-methyltransferase (HNMT), glycine N-methyltransferase (GNMT), catechol O-methyltransferase (COMT), and guanidinoacetate N-methyltransferase (GAMT). The data generated by this TCP can be leveraged for informed tool molecule development. For example, in the associated publication we identified a chemotype of HNMT-selective inhibitors. Additionally, we identified a putative SMMTase-selective inhibitor with potential as a tool molecule for studying broader methyltransferase biology.
(§5) High-through put screening assays were developed at the National Center for Advancing Translational Science (NCATS) for the enzymes NNMT, PNMT, HNMT, GNMT, COMT, and GAMT. Enzymatic activity was measured as a function of SAM cofactor conversion using the MTase Glo kit (Promega) for all enzymes. All assays were performed in 1536-well format with substrates and SAM concentrations at KM values. Enzyme concentration and assay timing were optimized for 10-20% SAM conversion. Initial screening of 27,574 compounds was done as single-point assays using the highest compound concentration (40 uM). […] These compounds were replated in 11-point dose response and assayed against NNMT, PNMT, HNMT, GNMT, COMT, GAMT, and a counter-assay. The IC50 and efficacy (maximal response) values were determined for each dose-response curve. These values are also accounted for in the area under the curve (AUC) values.
(§6) PROTOCOL TABLE (as described by Inglese J, Shamu CE and Guy RK. 2007)
(§7) SEQUENCE No. (e.g., 1, 2, 3, etc.); […] (e.g., Cells, Incubation, Reagent, etc.); VALUE; DESCRIPTION.
(§8) 1; Reagent; 2 uL; SMMTase Enzyme (2x) in reaction buffer, columns 1- 48.
(§9) 2; Reagent; 1 uL; SAM (4x) in reaction buffer, columns 1-48.
(§10) 3; Controls; 23 nL; DMSO in column 4; sinefungin in DMSO (0 uM - 40 uM) in 7-point 1:2 dilution series (n = 2) in column 2.
(§11) 4; Compounds; 23 nL; Columns 5-48.
(§12) 5; Reagent; 1 uL; Substrate (4x) in reaction buffer, columns 2-48.
(§13) 6; Time; 20-30 min; Incubation.
(§14) 7; Reagent; 1 uL; MTase-Glo reagent (5X), columns 1-48.
(§15) 8; Time; 30 min; Incubation.
(§16) 9; Reagent; 5 uL; MTase-Glo Detection reagent, columns 1-48.
(§17) 10; Time; 30 min; Incubation, luminescence evolution.
(§18) 11; Detection; Luminescence; ViewLux uHTS Microplate Imager (PerkinElmer).
(§19) NOTES (numbers refer to Sequence numbers above)
(§20) 1, 2, 5. White Medium Binding Greiner 1536-well plates (Cat #789175-F, Greiner Bio-One, Monroe, NC); Reaction buffer: 50 mM Tris, pH 8.0, 3 mM MgCl2, 1 mM EDTA, 50 mM NaCl, 1 mM DTT, and 0.1 mg/mL BSA. Evaporation was prevented by covering assay plates with metal lids containing holes to allow gas diffusion.
(§21) 1. Six SMMTase were profiled: HNMT, GNMT, PNMT, COMT, NNMT, GAMT
(§22) 5. The corresponding substrate was used for each enzyme: HNMT - 5.3 uM Histamine; GNMT - >500 uM Glycine; PNMT - 16.2 uM Norephinephrine; COMT - 13.7 uM Norephinephrine; NNMT - 3.8 uM Nicotinamide; GAMT - 2.5 uM Guanidinoacetate.6, 8, 10. Room temperature
(§23) 6. Final reaction conditions: 10 nM COMT, 5 uM SAM, 15 uM norepinephrine, 50 mM Tris, pH 8.0, 3 mM MgCl2, 1 mM EDTA, 50 mM NaCl, 1 mM DTT, and 0.1 mg/mL BSA; refer to tables 2 and S1 for specific timing.
8. […]

[2] = target: Guanidinoacetate N-methyltransferase (Homo sapiens) (UniProt Q14353); conditions: purified enzyme, MTase-Glo SAH luminescence; measured here: GAMT inhibition; at 40 µM; stronger effect = lower value
Description: as §1, §2, §3, §4, §5, §6, §7, §8, §9, §10, §11, §12, §13, §14, §15, §16, §17, §18, §19, §20, §21, §22, §23
8. […]

[3] = target: Histamine N-methyltransferase (Homo sapiens) (UniProt P50135); conditions: purified enzyme, MTase-Glo SAH luminescence; measured here: HNMT inhibition; at 40 µM; stronger effect = lower value
Description: as §1, §2, §3, §4, §5, §6, §7, §8, §9, §10, §11, §12, §13, §14, §15, §16, §17, §18, §19, §20, §21, §22, §23
8. […]

[4] = target: Nicotinamide N-methyltransferase (Homo sapiens) (UniProt P40261); conditions: purified enzyme, MTase-Glo SAH luminescence; measured here: NNMT inhibition; at 40 µM; stronger effect = lower value
Description: as §1, §2, §3, §4, §5, §6, §7, §8, §9, §10, §11, §12, §13, §14, §15, §16, §17, §18, §19, §20, §21, §22, §23
8. […]

[5] = target: Phenylethanolamine N-methyltransferase (Homo sapiens) (UniProt P11086); conditions: purified enzyme, MTase-Glo SAH luminescence; measured here: PNMT inhibition; at 40 µM; stronger effect = lower value
Description: as §1, §2, §3, §4, §5, §6, §7, §8, §9, §10, §11, §12, §13, §14, §15, §16, §17, §18, §19, §20, §21, §22, §23
8. […]
% is set by controls: 0 for no effect and ±100 for the full control effect.

Structure (SMILES) | activity change, negative = inhibition [1] | activity change, negative = inhibition [2] | activity change, negative = inhibition [3] | activity change, negative = inhibition [4] | activity change, negative = inhibition [5]
CSc1ccc(C2c3cccn3-c3ccccc3CN2C(=O)NCc2ccco2)cc1 (stereo not drawn) | -2.16% | 0% | -2.78% | -9.27% | 1.28%
Cc1cc(C)cc(NC(=O)N2Cc3ccccc3-n3cccc3C2c2cccc(Cl)c2)c1 (stereo not drawn) | 14.7% | 2.56% | 4.58% | 10.2% | 8.85%
CC(=O)c1cccc(NC(=O)OC[C@H]2C[C@@H]3CCN2C[C@@H]3c2cc(C3CCCC3)nc(C)n2)c1 | -1.33% | 1.09% | 0.914% | -6.79% | -10.5%
O=C(Nc1ccccc1F)N1Cc2ccccc2-n2cccc2C1c1ccccc1Cl (stereo not drawn) | 1.95% | -3.73% | 7.17% | -4.84% | 1.67%
O=C(O)C(Cl)Cl |  | 6.21% |  | -1.56% | 8.93%
CC(C)(C)c1cc(C=C(C#N)C#N)cc(C(C)(C)C)c1O | -49.7% | -15.4% | -40.9% | -18.6% | -24.4%
O=C(O)c1nn(Cc2ccc(Cl)cc2Cl)c2ccccc12 | -19.2% | 4.47% | -1.5% | -10.4% | 4.7%
CCc1ccc(NC(=O)N2Cc3ccccc3-n3cccc3C2c2ccc(C)cc2)cc1 (stereo not drawn) | 9.9% | 2.43% | -1.12% | -4.53% | 0.958%
CCOP(=O)(OCC)Oc1ccc2c(C)cc(=O)oc2c1 | -0.343% | 8.76% | -0.887% | -16.2% | -8.27%
CCOc1ccc(C2c3cccn3-c3ccccc3CN2C(=O)Nc2cc(OC)cc(OC)c2)cc1 (stereo not drawn) | 2.81% | 1.2% | 9.78% | 7.51% | 7.51%
CCC(C)C1NC(=O)C2CCCN2C(=O)C(CC(C)C(=O)O)OC(=O)CCNC(=O)C(C)N(C)C(=O)C(C(C)C)N(C)C1=O (stereo not drawn) (cyclo([X3]PI[NMeV][NMeA][βAla]); configuration not given here) | -1.45% | -7.07% | 3.16% | -15% | -0.544%
O=C(Nc1ccc2c(c1)OCCO2)N1Cc2ccccc2-n2cccc2C1c1cccs1 (stereo not drawn) | 8.88% | 0% | 1.02% | -4.32% | 1.81%
C=C(C)C(=O)O[C@H]1[C@@H]2[C@H](C)C(=O)O[C@@H]2C[C@@H](C)[C@@H]2C=CC(=O)[C@]21C | -3.96% | 4.81% | 9.68% | -5.81% | 4.89%
CCOc1ccccc1NC(=O)N1Cc2ccccc2-n2cccc2C1c1ccc(C)cc1 (stereo not drawn) | 7.82% | 3.52% | 6.62% | 2.94% | -0.11%
CCCCCn1cc(C(=O)C2C(C)(C)C2(C)C)c2ccccc21 | -2.37% | -19.6% | 6.38% | -34.8% | -12.6%
COc1ccc(NC(=O)N2Cc3ccccc3-n3cccc3C2c2cccc(Cl)c2)cc1 (stereo not drawn) | 8.7% | 4.54% | 0.326% | -3.34% | 1.95%
C[C@]12CC[C@H]3[C@@H](CCC4=C/C(=N/OCC(=O)O)CC[C@@]43C)[C@@H]1CC[C@@H]2O | -3.84% | 2.83% | 4.41% | -15.5% | -1.91%
COc1ccc(C2c3cccn3-c3ccccc3CN2C(=O)Nc2cccc(OC)c2)cc1 (stereo not drawn) | 3.93% | 0.174% | -2.3% | 1.67% | 6.32%
CC[C@@H](CO)NC(=O)[C@@H]1C=C2c3cccc4[nH]cc(c34)C[C@H]2N(C)C1 | -44.1% | -13.8% | -13% | -22.6% | -62%
CCC1CC2CN3CCc4c([nH]c5ccccc45)C(C(=O)OC)(C2)C13 (stereo not drawn) | -5.07% | 3.97% | 0.485% | -11.5% | 3.55%
CCC1(C2=NCCN2)Cc2ccccc2O1 (stereo not drawn) | 0.002% | 2.61% | -4.61% | -11.5% | -10.4%
CCOC(=O)c1ncn2c1[C@@H]1CCCN1C(=O)c1cc(OC)ccc1-2 | -7.28% | 4.72% | -1.45% | -4.59% | 5.99%
CCOc1ccccc1NC(=O)N1Cc2ccccc2-n2cccc2C1c1cc(F)cc(F)c1 (stereo not drawn) | 6.19% | 0% | 7.83% | 4.96% | 6.09%
NC(N)=Nc1ccc2[nH]c3c(c2c1)C[C@@]1(O)[C@H]2Cc4ccc(O)c5c4[C@@]1(CCN2CC1CC1)[C@H]3O5 | -29.1% | 2.9% | -8.59% | -7.19% | 5.68%
Cc1ccc(C2c3cccn3-c3ccccc3CN2C(=O)Nc2ccc(Br)c(C)c2)cc1 (stereo not drawn) | 13.2% | 0% | 10.1% | 2.6% | 8.54%
COc1ccc(NC(=O)N2Cc3ccccc3-n3cccc3C2c2ccc(SC)cc2)cc1OC (stereo not drawn) | -4.54% | 1.12% | -1.49% | -2.77% | 2.47%
CC(C)c1ccc(C2c3cccn3-c3ccccc3CN2C(=O)Nc2ccc(F)cc2F)cc1 (stereo not drawn) | -3.6% | 4.34% | 3.65% | -3.59% | -1.43%
CC(C)NC(=O)N1Cc2ccccc2-n2cccc2C1c1cccs1 (stereo not drawn) | 6.85% | 0% | 8.59% | 1.71% | 4.86%
CCOC(=O)C1CCC(CNC(=O)N2Cc3ccccc3-n3cccc3C2c2ccc(F)cc2)CC1 (stereo not drawn) | 0.183% | 2.3% | -3.8% | -11.3% | 1.6%
CN1C(=O)[C@@H](Cc2c[nH]c3ccccc23)N=C(c2ccccc2F)c2ccccc21 | -2.92% | -5.46% | 7.92% | -29.2% | -3.43%
